In publication PMC9911399, “Two distinct binding modes provide the RNA-binding protein RbFox with extraordinary sequence specificity”:
Numbering of substitutions follows the chain as printed; changes in the protein carry UniProt numbers. This is one part of the list.

T1: RBFOX1 RRM (Homo sapiens, UniProt Q9NWB1 109-208)
T1 sequence: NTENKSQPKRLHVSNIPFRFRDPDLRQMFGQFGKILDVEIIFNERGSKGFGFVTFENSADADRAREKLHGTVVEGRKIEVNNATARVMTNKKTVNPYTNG

B1: GCAAUGA (DNA:RNA)
RNA: GGGAGACCGGAAUUCAGAUUGUCCGCAAUGAUUAAAUCCCGUCGUAGCCACCA
DNA 1: CAATCTGAATTCCGGTCTCCC
DNA 2: TGGTGGCTACGACGGGATT
B2: ACUUACA (DNA:RNA)
RNA: B1 RNA with G25A, A27U, A28U, U29A, G30C
DNA 1: CAATCTGAATTCCGGTCTCCC
DNA 2: TGGTGGCTACGACGGGATT
B3: UCGGACC (DNA:RNA)
RNA: B1 RNA with G25U, A27G, A28G, U29A, G30C, A31C
DNA 1: CAATCTGAATTCCGGTCTCCC
DNA 2: TGGTGGCTACGACGGGATT
B4: GCUCGAC (DNA:RNA)
RNA: B1 RNA with A27U, A28C, U29G, G30A, A31C
DNA 1: CAATCTGAATTCCGGTCTCCC
DNA 2: TGGTGGCTACGACGGGATT
B5: CUCUGAC (DNA:RNA)
RNA: GGGAGACCGGAAUUCAGAUUGUCCCUCUGACUUAAAUCCCGUCGUAGCCACCA
DNA 1: CAATCTGAATTCCGGTCTCCC
DNA 2: TGGTGGCTACGACGGGATT
B6: GUUCCAC (DNA:RNA)
RNA: B5 RNA with C25G, C27U, U28C, G29C
DNA 1: CAATCTGAATTCCGGTCTCCC
DNA 2: TGGTGGCTACGACGGGATT
B7: CGAGAGG (DNA:RNA)
RNA: B1 RNA with G25C, C26G, A28G, U29A, A31G
DNA 1: CAATCTGAATTCCGGTCTCCC
DNA 2: TGGTGGCTACGACGGGATT
B8: GGCAUAG (DNA:RNA)
RNA: B1 RNA with C26G, A27C, G30A, A31G
DNA 1: CAATCTGAATTCCGGTCTCCC
DNA 2: TGGTGGCTACGACGGGATT
B9: GGACGAU (DNA:RNA)
RNA: B5 RNA with C25G, U26G, C27A, U28C, C31U
DNA 1: CAATCTGAATTCCGGTCTCCC
DNA 2: TGGTGGCTACGACGGGATT
B10: GUAUUGC (DNA:RNA)
RNA: B1 RNA with C26U, A28U, A31C
DNA 1: CAATCTGAATTCCGGTCTCCC
DNA 2: TGGTGGCTACGACGGGATT
B11: CGGUUAC (DNA:RNA)
RNA: B5 RNA with U26G, C27G, G29U
DNA 1: CAATCTGAATTCCGGTCTCCC
DNA 2: TGGTGGCTACGACGGGATT
B12: CUACCCU (DNA:RNA)
RNA: B5 RNA with C27A, U28C, G29C, A30C, C31U
DNA 1: CAATCTGAATTCCGGTCTCCC
DNA 2: TGGTGGCTACGACGGGATT
B13: AAUCUCA (DNA:RNA)
RNA: B1 RNA with G25A, C26A, A27U, A28C, G30C
DNA 1: CAATCTGAATTCCGGTCTCCC
DNA 2: TGGTGGCTACGACGGGATT
B14: GGAGACG (DNA:RNA)
RNA: B1 RNA with C26G, A28G, U29A, G30C, A31G
DNA 1: CAATCTGAATTCCGGTCTCCC
DNA 2: TGGTGGCTACGACGGGATT
B15: GGGCCGA (DNA:RNA)
RNA: B1 RNA with C26G, A27G, A28C, U29C
DNA 1: CAATCTGAATTCCGGTCTCCC
DNA 2: TGGTGGCTACGACGGGATT
B16: CAAGUAC (DNA:RNA)
RNA: B5 RNA with U26A, C27A, U28G, G29U
DNA 1: CAATCTGAATTCCGGTCTCCC
DNA 2: TGGTGGCTACGACGGGATT
B17: ACUAACG (DNA:RNA)
RNA: B1 RNA with G25A, A27U, U29A, G30C, A31G
DNA 1: CAATCTGAATTCCGGTCTCCC
DNA 2: TGGTGGCTACGACGGGATT
B18: UCUGACU (DNA:RNA)
RNA: B1 RNA with G25U, A27U, A28G, U29A, G30C, A31U
DNA 1: CAATCTGAATTCCGGTCTCCC
DNA 2: TGGTGGCTACGACGGGATT
B19: CUCGGGC (DNA:RNA)
RNA: B5 RNA with U28G, A30G
DNA 1: CAATCTGAATTCCGGTCTCCC
DNA 2: TGGTGGCTACGACGGGATT
B20: CAAUAAC (DNA:RNA)
RNA: B5 RNA with U26A, C27A, G29A
DNA 1: CAATCTGAATTCCGGTCTCCC
DNA 2: TGGTGGCTACGACGGGATT

biological target: T1, RBFOX1 RRM; experiment: EMSA; HiTS-Eq, 1 nM pool, 10 min; buffer printed only for the single-RNA assays: 10 mM Tris pH 7.5, 150 mM NaCl, 3.4 mM EDTA, 0.001% NP-40, 30 C; settings: tags: His6 N-terminal (pET28a); label: 5' 32P
Procedure, shortened: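 These values rest on relative association constants, computed from read-count changes of each RNA species versus the control reaction and normalised to the cognate motif. Reads came from free RNA recovered by 8% native PAGE after purified RbFox RRM (wild type or mutant) at increasing concentrations was equilibrated for 10 min in 50 µL with 1 nM of a 5′-radiolabelled pool with 7 randomized nucleotides and DNA-annealed flanks.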

Binder | binding signal
B1 | 0.0139 KA relative to UGCAUGU
B2 | 0.00166 KA relative to UGCAUGU
B3 | 0.00331 KA relative to UGCAUGU
B4 | 0.0209 KA relative to UGCAUGU
B5 | 0.0116 KA relative to UGCAUGU
B6 | 0.00677 KA relative to UGCAUGU
B7 | 0.00736 KA relative to UGCAUGU
B8 | 0.0112 KA relative to UGCAUGU
B9 | 0.02 KA relative to UGCAUGU
B10 | 0.0151 KA relative to UGCAUGU
B11 | 0.0112 KA relative to UGCAUGU
B12 | 0.00216 KA relative to UGCAUGU
B13 | 0.00445 KA relative to UGCAUGU
B14 | 0.0165 KA relative to UGCAUGU
B15 | 0.0168 KA relative to UGCAUGU
B16 | 0.0023 KA relative to UGCAUGU
B17 | 0.00263 KA relative to UGCAUGU
B18 | 0.00965 KA relative to UGCAUGU
B19 | 0.00316 KA relative to UGCAUGU
B20 | 0.00247 KA relative to UGCAUGU
